Reference: article PMC12136788
Some of the results follow.

T1: UNK ZnF1-3 (human, UniProt Q9C0B0 31-174)
T1 sequence: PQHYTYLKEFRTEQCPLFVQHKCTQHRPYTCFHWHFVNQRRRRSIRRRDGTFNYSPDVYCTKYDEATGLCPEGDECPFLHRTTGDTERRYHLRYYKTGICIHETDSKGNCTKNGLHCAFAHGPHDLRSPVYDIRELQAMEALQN

B1: 12004425_12006022_1406_3pUTR_ENSMUSG00000046139_ENSMUST00000061618|mouse|control|control (ssRNA)
RNA: GGGAGUUCUACAGUCCGACGAUCCUGGUAAUAGAAAUCAUCCAGGUAGGGAUCAGUGCUCUGCAGCUGCAUCAUCUGUAUUUUAGAGACCCAAUCCUUCUCCCGCUGCAACAUUAGAUUAGCAUAUGGAUCCUUCCGGAGAUGCAACAGAGGAUUGAGCAUCA
B2: chr12:103220247:103220248:+_ENSMUSG00000041781_ENSMUST00000047357|mus_mus|FALSE|FALSE (ssRNA)
RNA: GGGAGUUCUACAGUCCGACGAUCCAGGGAAUCAAUAAUGUCCACAGAGAAGUGUUCAUCCCAGCCACAGUCCAACAAAAACCUAAACUCAUCAACCUGGAGAAGAUAGCAAAGAGCGGACUCUUCUUGAACCCCAGAGAGGGUCAACAGAGGAUUGAGCAUCA
B3: chr6:160100356:160100357:-_ENSG00000112096_ENST00000546260|hu_hu|FALSE|FALSE (ssRNA)
RNA: GGGAGUUCUACAGUCCGACGAUCGCUGGGAUCAUUAGGGUAUGACUGAAAGUGAGAAACAGUAAUUUGUAAAACAUUUACCUAAUAAUAGCUUUCCCAAACAGUACUUCCCCUGGAAUUAAAACAGGAAAUACAAUUUAUGUUCAACAGAGGAUUGAGCAUCA
B4: chr7:44664009:44664010:+_ENSG00000105953_ENST00000222673|hu_hu|FALSE|FALSE (ssRNA)
RNA: GGGAGUUCUACAGUCCGACGAUCAGAAUAGCACCGAAUCUGUUGAAAUGUCCUAGCUGCUGCUGGUCUGUUUUGUGAAAAUGUCUUAACAGUCUGGGAAGCCGUCAAUGGCCUCAACUUAGCAGCACAAGUCCUUAAAUGAAACAACAGAGGAUUGAGCAUCA
B5: chr10:71921676:71921677:-_ENSG00000079332_ENST00000373241|hu_hu|motif|central (ssRNA)
RNA: GGGAGUUCUACAGUCCGACGAUCCACACUGCUGAAGCCAUUGUAGAUCCACUCAAAGAUGAAAGACAUUAUUAAUGCUUACGGCGGCCUGAGGGGCUCCUCCGGCAAAACAGCGGCUGGCUCGGACCCUCCCUCAGAGCACACCAACAGAGGAUUGAGCAUCA
B6: chr8:74858975:74858976:-_ENSG00000154582_ENST00000284811|hu_hu|motif|central (ssRNA)
RNA: GGGAGUUCUACAGUCCGACGAUCAACCUUGUACGUAAAAUACAUGCAUACUUUCGAUAGCACAUGUGAAGGUAUCUCUCGGAAAUUGACCUCAUUGGUUUCGUUCUCAGCAAACUGACCUGGGCCACUCAACAUGGCUUUUAUCAACAGAGGAUUGAGCAUCA
B7: chr2:9570881:9570882:+_ENSG00000119203_ENST00000238112|hu_mus|hu_hu_hu_mus_False|28_48 (ssRNA)
RNA: GGGAGUUCUACAGUCCGACGAUCACUUGUCUUCUGAAGGAACCAGGGCAGGGCUCCACAGUGAUCCAAAUGGAAAUGACUGAUCAAUAGGAGAUCAAUCUCAGCUGGGUCAAUUAAGUCAAUGUAAGGAAGGGCAUCCAUUCCCAACAGAGGAUUGAGCAUCA
B8: chr4:151706827:151706828:+_ENSMUSG00000028936_ENSMUST00000139685|mus_mus|motif|central (ssRNA)
RNA: GGGAGUUCUACAGUCCGACGAUCCACUGUGUCUCAAGCCCUCCUCGAGACAGGCACCAGAUAUAACCAACCACCAGCUCGGAGACUCGGGCUGGCCGGAGCCCACCACCCAGCCUCUCGUCUACUUGCUCUGUCAGAUGCAGCCAACAGAGGAUUGAGCAUCA
B9: chr7:149068622:149068623:-_ENSMUSG00000025139_ENSMUST00000001950|mus_hu|mus_mus_mus_hu_False|98_98 (ssRNA)
RNA: GGGAGUUCUACAGUCCGACGAUCGUGAGGCCUCUGAGUGAGGUUCCUGGUCUGUCCUGGGUUAGAGUUGUUAAUAUCACGGAACAUACCAUCUAGAACGUUCCAGUCCCGCCUGACACCUUCAUUCCCAAUGGAGAAGAAAUCCAACAGAGGAUUGAGCAUCA
B10: chr7:141438946:141438947:+_ENSG00000106028_ENST00000265304|hu_mus|hu_hu_hu_mus_True|78_98 (ssRNA)
RNA: GGGAGUUCUACAGUCCGACGAUCGACGAAAUACCUGACAGGUCUUCCUUCGAAACAUUCUAUUUUCUUUUCUUACAACCUAAUCUUUAGGCUUUUCCUAAAGGAAAGAAAGAAAAGAGAAAAAUGAUAAAUCAAGAAACUACACAACAGAGGAUUGAGCAUCA
B11: chr7:65705844:65705845:+_ENSG00000169902_ENST00000304842|hu_mus|hu_hu_hu_mus_False|68_78 (ssRNA)
RNA: GGGAGUUCUACAGUCCGACGAUCAAACGGAUCUUUGUUACAUAAAUAAGGUGCCGGCUCCCCAUGCUUAACGAUAACCUCCAGAAGGAAGGCUUGCAUGGCAGAAUCUAGCACUUCAUCUGUGACACCCGCCUCAUCCAAGCGCAACAGAGGAUUGAGCAUCA
B12: chr12:67699843:67699844:+_ENSG00000111530_ENST00000544619|hu_hu|motif|central (ssRNA)
RNA: GGGAGUUCUACAGUCCGACGAUCAAUAAACUGACCUACUACAGCUGGUCCCUCUUUAGGGCAUGCUCGAGUAAGGGCAGCGGCACAUUUGGCAAUGGAAUAAUAAGACUGCUUAUGAGUAAGAGCUGUGCUCUGAGAGUAAACCAACAGAGGAUUGAGCAUCA
B13: 76201617_76211542_1531_CDS_ENSG00000119685_ENST00000298832|human|control|control (ssRNA)
RNA: GGGAGUUCUACAGUCCGACGAUCUGACAGACCAAGCACAGAACCACCCAACUUCCCUGGCCCUUUCUCCCGGGCUGAGCCCACGAGGUUUUUCAUUUCCGCAUCACUGGCAGAGAGUGGACGGCAACGCUGAGGUUUCUGGAACAACAGAGGAUUGAGCAUCA
B14: 36865624_36867664_294_3pUTR_ENSMUSG00000029192_ENSMUST00000171385|mouse|control|control (ssRNA)
RNA: GGGAGUUCUACAGUCCGACGAUCUUGAGCUUCUUCAGCUGGCUUGGCUGGGAGAUUUGCAGGUCUGUCCUCGAGGAUGAGCGCCGUGGUGGACAGUGGCUCAAAAUCCAGGUUCUUCCUCACAUUCUGCUUGGGAGAGGGUGGCAACAGAGGAUUGAGCAUCA
B15: 91052124_91052635_1258_ncRNA_ENSMUSG00000002109_ENSMUST00000150427|mouse|control|control (ssRNA)
RNA: GGGAGUUCUACAGUCCGACGAUCUCUGUGACCCAUCUUCCUCUUGGCUCCAAAUGAGAAUAUGAUAACCCAUAGUAGAGGCCAGUGUGUCUCCCAUAGGAUUGAACUCAUUGAGCGAAGUAAUACCGGAGUAUCCUGGAUCAUCAACAGAGGAUUGAGCAUCA
B16: chr19:59067291:59067292:-_ENSG00000130725_ENST00000253023|hu_mus|FALSE|FALSE (ssRNA)
RNA: GGGAGUUCUACAGUCCGACGAUCCAGGUCGGGGGGGAGGCAGCACCGACCAUAAUCACGUGGUGGUCAAAAAAAAAAUAACUAGGGGCAGGUGACAGGGAAGAGAGGCAAGGCCAAGGCAGGGGCCAAGGCUACCCCACACACCAACAGAGGAUUGAGCAUCA
B17: chrX:140365796:140365797:-_ENSMUSG00000031285_ENSMUST00000033642|mus_mus|mus_mus_mus_hu_False|18_48 (ssRNA)
RNA: GGGAGUUCUACAGUCCGACGAUCCUUCUCAUUACUCAGUGCCUGCAAGGUUCUGGUUCGGUAGAAGCUACAGUGGGCGCUGUGAGUGGGACUUGGAAACCCAUUCAUCCGGGAGCCUCUCAUAUUUCUGGAUGUCUUAUCUCUCAACAGAGGAUUGAGCAUCA
B18: chr1:225611761:225611762:-_ENSG00000143815_ENST00000272163|hu_mus|hu_hu_hu_mus_True|38_108 (ssRNA)
RNA: GGGAGUUCUACAGUCCGACGAUCCCAGGCCAUCGACCUCUGACCACUUCACCCUCAACAAACUUCCUACUUGGCAUUUUCUAAAAUUAGUCUGGCCCAGGUUCCGGGGGAACUCCAGCCACUCCAGGACAGUCACCAGCAGCCCAACAGAGGAUUGAGCAUCA
B19: 57885200_57885320_1821_CDS_ENSMUSG00000022361_ENSMUST00000070143|mouse|control|control (ssRNA)
RNA: GGGAGUUCUACAGUCCGACGAUCUACUUGAGUAAGGACCAGACCUGGCUGACCAACAAUUUGGCAUGUCUGUAAGAUAGAUGGUAACCCGUUACUCCCUGUGGAAAUGUGUGUAGGAAUAACAGUUAUGGUCUGAGGUACAGUCAACAGAGGAUUGAGCAUCA
B20: chr4:103517381:103517382:+_ENSG00000109320_ENST00000505458|hu_mus|FALSE|FALSE (ssRNA)
RNA: GGGAGUUCUACAGUCCGACGAUCAGGCGAUGGGUUCCGUCUUGGUGCAGGCCAUGGGCAGGCUGGGCCCUUCACCUUCAGUUUCCUUCUCAGGGAGAGUCAGACUCUCCUCGUCAUCACUCUUGGCACAAUCUUUAGGGCCAUCAACAGAGGAUUGAGCAUCA
B21: chr11:87794696:87794697:-_ENSMUSG00000020483_ENSMUST00000020775|mus_hu|FALSE|FALSE (ssRNA)
RNA: GGGAGUUCUACAGUCCGACGAUCGCCUUUUAUUUUGUAUAGGGAAAGAAAGAGAAAAGGGAGAGGUGGGAGAGAUUUCCUAGUGCAAUACAACCAAAAAAUAUUUUUAAAGUCUUGAAAAAUAAACAUAAAGCAGCCUUCUUCCAACAGAGGAUUGAGCAUCA
B22: chr18:24791317:24791318:+_ENSMUSG00000024271_ENSMUST00000025120|mus_hu|motif|central (ssRNA)
RNA: GGGAGUUCUACAGUCCGACGAUCACUCCCAGUGAAGAAAUACUUGCUGUCAGGACUCCAAUCACAAGACCAAAUAAUUCGGCUGUGCACAGAAGUAAUUUUGUUGGUGAAGGCAAAAAGACUAAAAACUGGCUCGAACUCAGGCAACAGAGGAUUGAGCAUCA

molecular target: T1, UNK ZnF1-3; assay: nsRBNS (natural sequence RNA bind-n-seq); RBNS binding buffer (assumed for nsRBNS): 25 mM Tris pH 7.5, 150 mM KCl, 3 mM MgCl2, 0.01% Triton X-100, 500 ug/ml BSA, 20 U/ml SUPERase-In, 4 C; UNK is unkempt and MSI1 is Musashi-1; names of the RNAs are library labels; protein concentration not given here; high values mean tight binding

| Binder | binding signal [enrichment R] |
| --- | --- |
| B1 | 1.37 |
| B2 | 1.18 |
| B3 | 1.68 |
| B4 | 1.68 |
| B5 | 1.38 |
| B6 | 0.523 |
| B7 | 1.12 |
| B8 | 1.01 |
| B9 | 0.723 |
| B10 | 0.31 |
| B11 | 0.299 |
| B12 | 1.22 |
| B13 | 1.82 |
| B14 | 1.36 |
| B15 | 1.18 |
| B16 | 2.42 |
| B17 | 0.668 |
| B18 | 1.56 |
| B19 | 0.718 |
| B20 | 0.617 |
| B21 | 3.04 |
| B22 | 2.01 |
